Results taken from PubChem BioAssay AID504466 (National Center for Advancing Translational Sciences (NCATS), 2011).
Out of some 330,000 compounds screened, about 4,200 (1.3%) were called active. The shares of active, inactive and inconclusive entries below differ from those in the screen. Calls follow the shape of the dose curve; as a rule, active = well fitted activation curve with a large enough effect; inconclusive = small, poorly fitted or top-dose-only effect; inactive = no such curve, though single readings can be large or run the other way. A potency beside an inconclusive call is a rough fit, not a confirmed value.

Experiment: qHTS screen for small molecules that induce genotoxicity in human embryonic kidney (HEK293T) cells expressing luciferase-tagged ELG1; also: nearly all actives have a fitted effect of over 60% in size
Conditions: HEK293T ELG1-luciferase reporter, luminescence, 16 h; series mostly up to 46 µM
Outline: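 HEK293T cells expressing luciferase-tagged ELG1 were treated with compound or DMSO for 16 hr at 37°C. Luciferase activity was then read after 30 min with ONE-Glo at room temperature; rising signal flags genetic stress.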
Potency is read from the fitted curve at half-maximal effect; tags tell the direction and shape of the fitted curve.

Row | Structure (SMILES) | Potency
1 | Cc1cc2oc(=O)cc(COC(=O)c3n[nH]c4ccccc34)c2cc1C | inconclusive: 7.94 µM [activator, partial curve]
2 | O=C(CCc1nnc(CCc2c[nH]c3ccccc23)o1)NC1CCC1 | inconclusive: 18.3 µM [activator, partial curve]
3 | O=C(OCC(=O)N1CCCCC1)c1cccs1 | inconclusive: 14.6 µM [activator, partial curve]
4 | CC(C)c1ccc(NC(=O)c2ccccc2NC(=O)C2CC=CCC2C(=O)O)cc1 (centres undefined) | inconclusive: 20.6 µM [activator, partial curve, poor fit]
5 | N#Cc1ccsc1NC(=O)COC(=O)c1ccc2ccccc2c1 | inconclusive: 32.6 µM [activator, partial curve, poor fit]
6 | Cc1ccc2nc(-c3ccc(NC(=O)Cc4cccs4)cc3)[nH]c2c1 | inconclusive: 2.59 µM [activator, partial curve]
7 | NC(=O)OCC(O)COc1ccc(Cl)cc1 (centres undefined) | inconclusive: 20.6 µM [activator, partial curve, poor fit]
8 | C/C(=N\NC(=O)C12CCC(C)(C(=O)O1)C2(C)C)c1ccccc1O (centres undefined) | inactive
9 | Cc1cc(C)nc(Nc2nc3ccccc3s2)n1 | inconclusive: 1.46 µM [activator, partial curve]
10 | Cc1ccc(NC(=O)COc2ccccc2C(=O)Nc2ccccc2)cc1Cl | inactive
11 | O=C(CSc1ccccn1)c1ccc2c(c1)OCO2 | active: 4.61 µM
12 | COc1ccc(C(=O)NC2CCN(S(=O)(=O)c3ccc(F)cc3)CC2)cc1 | inconclusive: 29.1 µM [activator, single point]
13 | COc1ccc2oc(C(=O)N(C)CCOc3ccccc3)c(C)c2c1 | inconclusive: 7.3 µM [activator, single point]
14 | CCCC(=O)N(c1ccc(OCC)cc1)S(=O)(=O)c1ccc2c3c(cccc13)C(=O)N2C | inactive
15 | COc1ccc(C2=NN(C(=O)CSc3nccn3C)C(c3ccco3)C2)cc1 (centres undefined) | inactive
16 | COC(=O)c1cnc(SCC(=O)c2ccccc2)n1C | inconclusive: 5.8 µM [activator, partial curve]
17 | CC1=NN(c2ccccc2)C(=O)/C1=C/c1ccc[nH]1 | inconclusive: 20.6 µM [activator, partial curve, poor fit]
18 | Cc1ccc(NC(=O)COc2ccccc2C=O)cc1Cl | inconclusive: 5.17 µM [activator, partial curve]
19 | CC(=O)Nc1sc(N/N=C/c2ccc(N(C)C)cc2)nc1-c1ccc(C)cc1 | inconclusive: 20.6 µM [activator, partial curve, poor fit]
